Assay results taken from the supplement of paper PMC12217912.
This is one part of the list. Sequences were assembled here from the parent chain. Values near 0.05 are background.

B1: TEV protease; numbered along this chain (parent)
chain: MGESLFKGPRDYNPISSSICHLTNESDGHTTSLYGIGFGPFIITNKHLFRRNNGTLVVQSLHGVFKVKDTTTLQQHLVDGRDMIIIRMPKDFPPFPQKLKFREPQREERICLVTTNFQTKSMSSMVSDTSCTFPSGDGIFWKHWIQTKDGQCGSPLVSTRDGFIVGIHSASNFTNTNNYFTSVPKNFMELLTNQEAQQWVSGWRLNADSVLWGGHKVFMVKPEEPFQPVKEATQL

Variants of: B1
Test: raw area under fraction-flipped curve 0-4 h after induction (AUC4h, not background-subtracted), DNA-recorder readout of cleavage of the substrate (dimensionless); higher = more cleavage of the substrate by the protease variant
Details: temperature: 34 °C; time window: 0-4 h after rhamnose induction
Method: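 In vivo DNA recorder in E. coli TOP10(DE3) ΔrhaA at 34 °C. Each TEVp single-site mutant (parent TEVp 0) is paired with a single-site variant of the 7-mer TEVs (canonical ENLYFQ|S). The substrate sits between flexible linkers in a Bxb1-sfGFP-TEVs-SsrA fusion, so cleavage stabilises Bxb1 and speeds flipping of a recombination array, read by NGS. The value is the raw area under the fraction-flipped curve over 0-4 h after rhamnose induction (AUC4h), with ≥20 reads per time point. It is not background-subtracted; inactive controls average about 0.047.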
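Further: Bxb1 expression induced with 0.2% (w/v) L-rhamnose at OD600 near 0.5, cultures sampled hourly, flipped fraction per protease–substrate barcode pair counted by paired-end Illumina sequencing.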

| Variant | area with substrate ENLYFAS | area with substrate ENLYFES | area with substrate ENLYFGS | area with substrate ENLYFHS | area with substrate ENLYFIS | area with substrate ENLYFKS | area with substrate ENLYFMS | area with substrate ENLYFNS | area with substrate ENLYFRS | area with substrate ENLYFSS | area with substrate ENLYFVS | area with substrate ENLYFYS | area with substrate ENLYFDS | area with substrate ENLYFFS | area with substrate ENLYFPS | area with substrate ENLYFTS | area with substrate ENLYFWS | area with substrate ENLYFCS | area with substrate ENLYFLS |
| --- | --- | --- | --- | --- | --- | --- | --- | --- | --- | --- | --- | --- | --- | --- | --- | --- | --- | --- | --- |
| I145V | 0.0654 | 0.0685 | 0.0718 | 0.0626 | 0.0626 | 0.0402 | 0.0708 | 0.0766 | 0.0646 | 0.0586 | 0.0487 | 0.0421 | – | – | – | – | – | – | – |
| P134W | 0.0325 | 0.0701 | 0.0258 | – | 0.0661 | 0.0641 | 0.0579 | 0.0502 | – | – | – | – | 0.0567 | 0.0756 | 0.0382 | 0.0491 | 0.0578 | – | – |
| C131M | 0.0573 | 0.0611 | – | – | 0.0567 | – | – | – | – | – | – | – | – | – | 0.0674 | – | 0.0467 | – | – |
| S130E | 0.0701 | 0.0623 | – | – | 0.0712 | – | 0.0465 | 0.0387 | – | – | – | – | 0.0635 | 0.0411 | 0.052 | 0.0586 | 0.0674 | – | – |
| S130V | 0.06 | 0.0571 | – | 0.0564 | 0.0589 | – | 0.0723 | 0.111 | 0.0396 | 0.0642 | 0.0663 | 0.0471 | 0.0704 | 0.0187 | 0.0565 | 0.053 | 0.0619 | 0.119 | – |
| Q151N | 0.0572 | 0.0676 | – | 0.0612 | 0.0579 | 0.073 | 0.0637 | 0.0567 | – | 0.0533 | 0.0616 | – | – | 0.0708 | 0.0541 | 0.0714 | 0.0543 | 0.0639 | 0.0487 |
| V126C | 0.0605 | 0.0141 | – | – | 0.0591 | – | 0.0621 | – | – | – | – | 0.0592 | 0.0429 | 0.0585 | 0.0474 | 0.0273 | – | 0.0637 | – |
| Q146D | 0.0423 | – | – | 0.0403 | 0.069 | 0.0703 | 0.0762 | – | – | – | – | 0.0816 | – | 0.0751 | – | 0.0625 | 0.0687 | 0.0841 | – |
| S135N | 0.0666 | 0.0677 | 0.0606 | 0.0543 | 0.0592 | – | 0.0947 | 0.0564 | 0.0627 | 0.0528 | 0.0505 | – | 0.0665 | 0.0751 | 0.0675 | 0.0593 | 0.0769 | 0.059 | 0.0491 |
| S135K | 0.0657 | 0.0679 | 0.0578 | 0.049 | – | – | 0.0691 | – | – | – | – | – | 0.0304 | – | 0.058 | 0.0494 | 0.0369 | – | – |
| S135F | 0.0588 | 0.0585 | 0.0592 | 0.0607 | 0.049 | 0.0566 | 0.048 | 0.0547 | 0.0526 | 0.0581 | 0.0635 | 0.0583 | – | 0.0647 | 0.0626 | 0.0538 | – | 0.0623 | – |
| F133M | 0.0604 | 0.0758 | 0.0631 | 0.0672 | 0.0534 | – | 0.0611 | 0.0662 | 0.0624 | 0.0562 | 0.0515 | – | – | 0.0802 | 0.0661 | 0.0596 | 0.0639 | 0.0608 | 0.0626 |
| F133P | 0.0578 | 0.0602 | 0.0619 | 0.0516 | 0.048 | 0.0505 | 0.034 | 0.0497 | 0.0523 | – | 0.0481 | 0.0465 | 0.0473 | 0.0639 | 0.0562 | 0.0681 | – | – | 0.0653 |
| S127I | 0.0668 | 0.0435 | 0.0503 | 0.0562 | 0.0553 | 0.0597 | 0.071 | – | – | 0.0537 | 0.0536 | 0.0603 | 0.0597 | – | 0.0473 | 0.0573 | 0.0549 | 0.0546 | 0.0676 |
